Results on 109 sequences are retold here after the supplement of paper PMC4166925.

± gives the standard deviation of the averaged measurements. The full ranking holds about 33,000 sequences; the median of “E-score (dimensionless, -0.5 to 0.5)” is about -0.046, and the highest 2% start at about 0.36. The list shows a part of the results.
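Also: protein at 200 nM in PBS on universal double-stranded arrays.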

The experiment has as its system T1, SpTbr T-box DNA-binding domain (GST fusion).
T1 sequence: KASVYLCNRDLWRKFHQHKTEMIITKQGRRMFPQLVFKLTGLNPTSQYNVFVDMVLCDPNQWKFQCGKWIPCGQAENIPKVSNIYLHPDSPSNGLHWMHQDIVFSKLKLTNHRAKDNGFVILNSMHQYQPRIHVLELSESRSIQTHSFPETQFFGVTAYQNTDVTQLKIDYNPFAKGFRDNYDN
Put plainly: PBM E-score of 8-mer (E-score (dimensionless, -0.5 to 0.5)); Tbr is Tbrain of the sea star Patiria miniata (Pm) or the sea urchin Strongylocentrotus purpuratus (Sp); higher = stronger binding preference; most listed sequences are background and not binding sites. The following applies: the construct has about 5 more residues each side. The protocol:
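Universal protein-binding microarray (Agilent AMADID 016060, 60-bp probes with a 35-bp variable region) incubated with 200 nM GST-fused Strongylocentrotus purpuratus Tbr T-box DNA-binding domain (residues 362-554) in PBS pH 7.5. Scored for every ungapped 8-mer (given with its reverse complement) as E-score (range -0.5 to 0.5; >0.45 counts as bound) and Z-score of median probe intensity. Two replicate arrays (datasets 1 and 2).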
With CTCATATA, the “PBM E-score of 8-mer” value was -0.0945 ± 0.032.

In the case of CGCATCCC, the “PBM E-score of 8-mer” value was determined as 0.0091 ± 0.11.

As for AATATCGA, the “PBM E-score of 8-mer” value is -0.0563 ± 0.022.

Consider CACGGGAG, for which the “PBM E-score of 8-mer” value is -0.0883 ± 0.02.

As to CAGCCGAA, the “PBM E-score of 8-mer” value was -0.299 ± 0.039.

Take ACGGGCCT: the “PBM E-score of 8-mer” value was -0.296 ± 0.0042.

Consider CGCCGGTA, for which the “PBM E-score of 8-mer” value was -0.00991 ± 0.076.

Turning to AAACTATT, the “PBM E-score of 8-mer” value is -0.123 ± 0.063.

Take GATCCGGC: the “PBM E-score of 8-mer” value was -0.187 ± 0.079.

Consider CGCGAAAC, for which the “PBM E-score of 8-mer” value was found to be 0.344 ± 0.0048.

On to CGTACGTA, for which the “PBM E-score of 8-mer” value is -0.114 ± 0.0038.

AGCGCAGA: the “PBM E-score of 8-mer” value was -0.0856 ± 0.07.

Regarding GCATTCCA, the “PBM E-score of 8-mer” value was -0.141 ± 0.0076.

For the sequence ATGGTGAA, the “PBM E-score of 8-mer” value was found to be 0.0718 ± 0.0071.

Turning to AAAACTAA, the “PBM E-score of 8-mer” value was -0.0381 ± 0.053.

Take CTGATGCA: the “PBM E-score of 8-mer” value came to 0.0385 ± 0.021.

For ATGAATCC, the “PBM E-score of 8-mer” value amounted to 0.00992 ± 0.056.

Regarding ATCTTTAG, the “PBM E-score of 8-mer” value is -0.022 ± 0.032.

Regarding CCACTCGG, the “PBM E-score of 8-mer” value is 0.0776 ± 0.073.

As to TATACGCA, the “PBM E-score of 8-mer” value amounted to 0.00075 ± 0.05.

For the sequence AGTCGCGC, the “PBM E-score of 8-mer” value stood at 0.258 ± 0.038.

As for CCGATGAC, the “PBM E-score of 8-mer” value was -0.015 ± 0.015.

As for CGTCCTGC, the “PBM E-score of 8-mer” value is -0.234 ± 0.0096.

For CGATGACC, the “PBM E-score of 8-mer” value was found to be 0.112 ± 0.026.

Consider ACAGCGAT, for which the “PBM E-score of 8-mer” value is -0.148 ± 0.021.

With ACCAATTC, the “PBM E-score of 8-mer” value is 0.00139 ± 0.042.

Consider CGGCTCCA, for which the “PBM E-score of 8-mer” value was -0.0313 ± 0.029.

Turning to ATTCCGCC, the “PBM E-score of 8-mer” value is -0.151 ± 0.015.

As for CAAACAGA, the “PBM E-score of 8-mer” value was -0.0976 ± 0.11.

Regarding CCAGTGCG, the “PBM E-score of 8-mer” value is 0.176 ± 0.0042.

On to CATGTTGC, for which the “PBM E-score of 8-mer” value turned out to be 0.0531 ± 0.0027.

On to ATCTAGGA, for which the “PBM E-score of 8-mer” value is -0.206 ± 0.0076.

Consider ATGATAAG, for which the “PBM E-score of 8-mer” value was -0.12 ± 0.057.

On to AATAAGGT, for which the “PBM E-score of 8-mer” value turned out to be 0.0316 ± 0.053.

Consider ACAAGCGT, for which the “PBM E-score of 8-mer” value was 0.13 ± 0.036.

Take CAGGTCGG: the “PBM E-score of 8-mer” value is 0.0973 ± 0.0072.

As to ACCACTTA, the “PBM E-score of 8-mer” value was -0.0351 ± 0.051.

Turning to GCAGGAGA, the “PBM E-score of 8-mer” value is -0.0948 ± 0.0069.

For CTATCCGC, the “PBM E-score of 8-mer” value was determined as 0.00122 ± 0.06.

On to GACCCAGC, for which the “PBM E-score of 8-mer” value was -0.0512 ± 0.053.

For the sequence CTTATTGA, the “PBM E-score of 8-mer” value is -0.232 ± 0.048.

On to ATACTACG, for which the “PBM E-score of 8-mer” value is -0.142 ± 0.022.

Regarding CAGCCATC, the “PBM E-score of 8-mer” value is -0.0868 ± 0.0053.

As for AGCGGGCG, the “PBM E-score of 8-mer” value was 0.0665 ± 0.011.

ACCCGTAT: the “PBM E-score of 8-mer” value was 0.0916 ± 0.0027.

As to GCGTCTAC, the “PBM E-score of 8-mer” value was 0.0423 ± 0.02.

AGATTCTA: the “PBM E-score of 8-mer” value is -0.236 ± 0.032.

As for AATTAAAC, the “PBM E-score of 8-mer” value is -0.0463 ± 0.12.

For the sequence CAAAGTAC, the “PBM E-score of 8-mer” value was -0.111 ± 0.1.

With CACGAATA, the “PBM E-score of 8-mer” value stood at 0.124 ± 0.062.

Regarding AGGCTTAG, the “PBM E-score of 8-mer” value was -0.23 ± 0.044.

For GCAAGGAA, the “PBM E-score of 8-mer” value turned out to be 0.0204 ± 0.0047.

For AGATGGGC, the “PBM E-score of 8-mer” value was -0.154 ± 0.012.

With TAGTAATA, the “PBM E-score of 8-mer” value is -0.113 ± 0.019.

Regarding ACTACCAT, the “PBM E-score of 8-mer” value was -0.136 ± 0.036.

ACTAGGGA: the “PBM E-score of 8-mer” value is -0.0228 ± 0.02.

Take AAGCTTAT: the “PBM E-score of 8-mer” value was -0.225 ± 0.049.

As to AACAACAC, the “PBM E-score of 8-mer” value amounted to 0.373 ± 0.013.

As to AAGAGACT, the “PBM E-score of 8-mer” value was -0.138 ± 0.0053.

CCATTCGG: the “PBM E-score of 8-mer” value was -0.2291 ± 0.002.

In the case of CTCGGTAA, the “PBM E-score of 8-mer” value was -0.0319 ± 0.0046.

With AGATATCT, the “PBM E-score of 8-mer” value is -0.153 ± 0.082.

As for CGAAACCA, the “PBM E-score of 8-mer” value was 0.108 ± 0.038.

As to ACCGATAT, the “PBM E-score of 8-mer” value is -0.155 ± 0.0099.

On to CATCAATA, for which the “PBM E-score of 8-mer” value is -0.1151 ± 2.1e-05.

Take AACATTAC: the “PBM E-score of 8-mer” value is -0.134 ± 0.049.

CGAACCCG: the “PBM E-score of 8-mer” value turned out to be 0.0328 ± 0.0017.

Turning to CAATAGGA, the “PBM E-score of 8-mer” value is -0.3222 ± 0.0015.

ACAAACGC: the “PBM E-score of 8-mer” value was 0.0188 ± 0.054.

On to ACGCCGAA, for which the “PBM E-score of 8-mer” value was -0.0237 ± 0.04.

On to ACACCAAT, for which the “PBM E-score of 8-mer” value came to 0.262 ± 0.0086.

On to ACCAGGAT, for which the “PBM E-score of 8-mer” value was -0.096 ± 0.029.

Turning to CCTCCGGC, the “PBM E-score of 8-mer” value was -0.116 ± 0.03.

For the sequence CTATATGA, the “PBM E-score of 8-mer” value is -0.173 ± 0.038.

Turning to TCCTGACA, the “PBM E-score of 8-mer” value amounted to 0.13 ± 0.016.

In the case of CCTCTACG, the “PBM E-score of 8-mer” value was -0.0662 ± 0.046.

Consider GCAGATCA, for which the “PBM E-score of 8-mer” value is -0.0781 ± 0.05.

Take ATTATAGG: the “PBM E-score of 8-mer” value was -0.255 ± 0.027.

Turning to AAACCAAC, the “PBM E-score of 8-mer” value was -0.162 ± 0.028.

As for CAAGTGCA, the “PBM E-score of 8-mer” value stood at 0.175 ± 0.0078.

Turning to AATTACAC, the “PBM E-score of 8-mer” value is 0.227 ± 0.017.

With ATCGTATA, the “PBM E-score of 8-mer” value is -0.0973 ± 0.036.

Turning to GCAATTAC, the “PBM E-score of 8-mer” value was -0.0514 ± 0.012.

On to TAATCAAA, for which the “PBM E-score of 8-mer” value is -0.0519 ± 0.084.

AAACCTAT: the “PBM E-score of 8-mer” value was -0.193 ± 0.084.

CAATAAGG: the “PBM E-score of 8-mer” value is -0.0796 ± 0.057.

As to ACTGACCA, the “PBM E-score of 8-mer” value is -0.198 ± 0.025.

With ATGGCGGC, the “PBM E-score of 8-mer” value was 0.0393 ± 0.086.

For AGGCAACA, the “PBM E-score of 8-mer” value amounted to 0.105 ± 0.032.

Consider AGGCGGAA, for which the “PBM E-score of 8-mer” value was -0.127 ± 0.058.

Consider GGGCGGTA, for which the “PBM E-score of 8-mer” value stood at 0.0156 ± 0.066.

For TCGCACAA, the “PBM E-score of 8-mer” value turned out to be 0.313 ± 0.0099.

For the sequence ATACATTG, the “PBM E-score of 8-mer” value is -0.111 ± 0.0028.

Regarding ATGTAGGC, the “PBM E-score of 8-mer” value was -0.203 ± 0.022.

As to CGAATTAG, the “PBM E-score of 8-mer” value was -0.156 ± 0.002.

GCGGACTA: the “PBM E-score of 8-mer” value was -0.122 ± 0.063.

CACCTTCG: the “PBM E-score of 8-mer” value amounted to 0.396 ± 0.017.

On to GGGTATAC, for which the “PBM E-score of 8-mer” value came out at 0.0195 ± 0.045.

Regarding TCGCTGAA, the “PBM E-score of 8-mer” value was -0.128 ± 0.034.

With ATAAGTGG, the “PBM E-score of 8-mer” value was found to be 0.0506 ± 0.045.

Consider AACGTGCG, for which the “PBM E-score of 8-mer” value stood at 0.32 ± 0.0051.

CTACTTCA: the “PBM E-score of 8-mer” value is 0.071 ± 0.0037.

Turning to CGCACCAC, the “PBM E-score of 8-mer” value came to 0.26 ± 0.029.

CCAACCCA: the “PBM E-score of 8-mer” value was -0.13 ± 0.019.

Turning to ATTCAGGC, the “PBM E-score of 8-mer” value is -0.0804 ± 0.043.

As for CCACGGTC, the “PBM E-score of 8-mer” value is -0.0434 ± 0.1.

For ACGACCAT, the “PBM E-score of 8-mer” value is -0.0132 ± 0.016.

With AAAGGCGA, the “PBM E-score of 8-mer” value worked out at 0.137 ± 0.077.

For the sequence GGCGCTAC, the “PBM E-score of 8-mer” value came out at 0.335 ± 0.013.
